# In the supplement of paper PMC8728848:
# Some of the results follow.
# Legend:
# Experiment in all cases: glycan array binding signal (z-score within array); higher = stronger binding
# Conditions in all cases: glycan notation: IUPAC condensed, linker removed
# [1] = target: Neu5Ac(a2-6)Gal(b1-4)GlcNAc(b1-2)Man(a1-6)[Gal(b1-4)GlcNAc(b1-2)Man(a1-3)]Man(b1-4)GlcNAc(b1-4)GlcNAc
# Outline: (§1)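 Glycan array binding is given as a within-array Z-score, which can be read as non-binding when negative. The arrays, 3228 of them, came from the Consortium for Functional Glycomics database and were retained only where the protein sequence was available. Z-scores were averaged across arrays of the same protein sequence at different concentrations or buffers and across linkers.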
# [2] = target: Neu5Ac(a2-6)Gal(b1-4)GlcNAc(b1-2)Man(a1-6)[GlcNAc(b1-2)Man(a1-3)]Man(b1-4)GlcNAc(b1-4)GlcNAc
# Outline: as §1
# [3] = target: Neu5Ac(a2-6)Gal(b1-4)GlcNAc(b1-2)Man(a1-6)[Man(a1-3)]Man(b1-4)GlcNAc(b1-4)GlcNAc
# Outline: as §1
# [4] = target: Neu5Ac(a2-6)Gal(b1-4)GlcNAc(b1-2)[Neu5Ac(a2-6)Gal(b1-4)GlcNAc(b1-4)]Man(a1-3)[GlcNAc(b1-4)][Neu5Ac(a2-6)Gal(b1-4)GlcNAc(b1-2)[Neu5Ac(a2-6)Gal(b1-4)GlcNAc(b1-6)]Man(a1-6)]Man(b1-4)GlcNAc(b1-4)GlcNAc
# Outline: as §1
# [5] = target: Neu5Ac(a2-6)Gal(b1-4)GlcNAc(b1-2)[Neu5Ac(a2-6)Gal(b1-4)GlcNAc(b1-4)]Man(a1-3)[GlcNAc(b1-4)][Neu5Ac(a2-6)Gal(b1-4)GlcNAc(b1-4)Man(a1-6)]Man(b1-4)GlcNAc(b1-4)GlcNAc
# Outline: as §1
# [6] = target: Neu5Ac(a2-6)Gal(b1-4)GlcNAc(b1-2)[Neu5Ac(a2-6)Gal(b1-4)GlcNAc(b1-6)]Man(a1-6)[Neu5Ac(a2-6)Gal(b1-4)GlcNAc(b1-2)Man(a1-3)][GlcNAc(b1-4)]Man(b1-4)GlcNAc(b1-4)GlcNAc
# Outline: as §1
# [7] = target: Neu5Ac(a2-6)Gal(b1-4)GlcNAc(b1-3)Gal(b1-3)GlcNAc
# Outline: as §1
# [8] = target: Neu5Ac(a2-6)Gal(b1-4)GlcNAc(b1-3)Gal(b1-4)GlcNAc
# Outline: as §1
# [9] = target: Neu5Ac(a2-6)Gal(b1-4)GlcNAc(b1-3)Gal(b1-4)GlcNAc(b1-2)Man(a1-3)[Neu5Ac(a2-6)Gal(b1-4)GlcNAc(b1-3)Gal(b1-4)GlcNAc(b1-2)Man(a1-6)]GalNAc
# Outline: as §1
# [10] = target: Neu5Ac(a2-6)Gal(b1-4)GlcNAc(b1-3)Gal(b1-4)GlcNAc(b1-3)Gal(b1-4)GlcNAc
# Outline: as §1
# [11] = target: Neu5Ac(a2-6)Gal(b1-4)GlcNAc(b1-3)Gal(b1-4)GlcNAc(b1-3)Gal(b1-4)GlcNAc(b1-2)Man(a1-3)[Neu5Ac(a2-6)Gal(b1-4)GlcNAc(b1-3)Gal(b1-4)GlcNAc(b1-3)Gal(b1-4)GlcNAc(b1-2)Man(a1-6)]GalNAc
# Outline: as §1
# [12] = target: Neu5Ac(a2-6)Gal(b1-4)GlcNAc(b1-3)Gal(b1-4)GlcNAc(b1-3)GalNAc
# Outline: as §1
# [13] = target: Neu5Ac(a2-6)Gal(b1-4)GlcNAc(b1-3)Gal(b1-4)GlcNAc(b1-3)[Neu5Ac(a2-6)Gal(b1-4)GlcNAc(b1-3)Gal(b1-4)GlcNAc(b1-6)]GalNAc
# Outline: as §1
# [14] = target: Neu5Ac(a2-6)Gal(b1-4)GlcNAc(b1-3)Gal(b1-4)GlcNAc(b1-6)[Gal(b1-3)]GalNAc
# Outline: as §1
# [15] = target: Neu5Ac(a2-6)Gal(b1-4)GlcNAc(b1-3)Gal(b1-4)[Fuc(a1-3)]GlcNAc(b1-3)Gal(b1-4)[Fuc(a1-3)]GlcNAc
# Outline: as §1
# [16] = target: Neu5Ac(a2-6)Gal(b1-4)GlcNAc(b1-3)GalNAc
# Outline: as §1
# [17] = target: Neu5Ac(a2-6)Gal(b1-4)GlcNAc(b1-3)[Neu5Ac(a2-6)Gal(b1-4)GlcNAc(b1-6)]GalNAc
# Outline: as §1
# [18] = target: Neu5Ac(a2-6)Gal(b1-4)GlcNAc(b1-6)GalNAc
# Outline: as §1
# [19] = target: Neu5Ac(a2-6)Gal(b1-4)GlcNAc(b1-6)[Gal(b1-3)GlcNAc(b1-3)]Gal(b1-4)Glc
# Outline: as §1
# [20] = target: Neu5Ac(a2-6)Gal(b1-4)GlcNAc(b1-6)[Gal(b1-3)]GalNAc
# Outline: as §1
# [21] = target: Neu5Ac(a2-6)Gal(b1-4)GlcNAc6S
# Outline: as §1
# Neu5Ac(a2-6)GalNAc = target: Neu5Ac(a2-6)GalNAc
# Outline: as §1
# [22] = target: Neu5Ac(a2-6)GalNAc(b1-4)GlcNAc
# Outline: as §1
# [23] = target: Neu5Ac(a2-6)GalNAc(b1-4)GlcNAc6S
# Outline: as §1
# [24] = target: Neu5Ac(a2-6)GlcNAc(b1-4)GlcNAc
# Outline: as §1
# [25] = target: Neu5Ac(a2-6)GlcNAc(b1-4)GlcNAc(b1-4)GlcNAc
# Outline: as §1
# Neu5Ac(a2-8)Neu5Ac = target: Neu5Ac(a2-8)Neu5Ac
# Outline: as §1
# [26] = target: Neu5Ac(a2-8)Neu5Ac(a2-3)Gal(b1-3)GalNAc(b1-4)[Neu5Ac(a2-3)]Gal(b1-4)Glc
# Outline: as §1
# [27] = target: Neu5Ac(a2-8)Neu5Ac(a2-3)Gal(b1-3)GalNAc(b1-4)[Neu5Ac(a2-8)Neu5Ac(a2-3)]Gal(b1-4)Glc
# Outline: as §1
# [28] = target: Neu5Ac(a2-8)Neu5Ac(a2-3)Gal(b1-4)Glc
# Outline: as §1
# [29] = target: Neu5Ac(a2-8)Neu5Ac(a2-3)Gal(b1-4)GlcNAc
# Outline: as §1
# [30] = target: Neu5Ac(a2-8)Neu5Ac(a2-3)[Gal(b1-3)GalNAc(b1-4)]Gal(b1-4)Glc
# Outline: as §1
# [31] = target: Neu5Ac(a2-8)Neu5Ac(a2-3)[GalNAc(b1-4)]Gal(b1-4)Glc
# Outline: as §1
# [32] = target: Neu5Ac(a2-8)Neu5Ac(a2-8)Neu5Ac
# Outline: as §1
# [33] = target: Neu5Ac(a2-8)Neu5Ac(a2-8)Neu5Ac(a2-3)Gal(b1-4)Glc
# Outline: as §1
# [34] = target: Neu5Ac(a2-8)Neu5Ac(a2-8)Neu5Ac(a2-3)[Gal(b1-3)GalNAc(b1-4)]Gal(b1-4)Glc
# Outline: as §1
# [35] = target: Neu5Ac(a2-8)Neu5Ac(a2-8)Neu5Ac(a2-3)[GalNAc(b1-4)]Gal(b1-4)Glc
# Outline: as §1
# [36] = target: Neu5Ac(a2-8)Neu5Ac(a2-8)Neu5Ac(a2-8)Neu5Ac(a2-3)[GalNAc(b1-4)]Gal(b1-4)Glc
# Outline: as §1
# [37] = target: Neu5Ac(a2-8)Neu5Gc(a2-3)Gal(b1-4)GlcNAc
# Outline: as §1
# [38] = target: Neu5Ac(b2-6)Gal(b1-4)GlcNAc
# Outline: as §1
# Neu5Ac(b2-6)GalNAc = target: Neu5Ac(b2-6)GalNAc
# Outline: as §1
# [39] = target: Neu5Ac9Ac(a2-3)Gal(b1-3)GlcNAc
# Outline: as §1
# [40] = target: Neu5Ac9Ac(a2-3)Gal(b1-4)GlcNAc
# Outline: as §1
# [41] = target: Neu5Ac9Ac(a2-6)Gal(b1-4)GlcNAc
# Outline: as §1
# [42] = target: Neu5Gc(a2-3)Gal(b1-3)GlcNAc
# Outline: as §1
# [43] = target: Neu5Gc(a2-3)Gal(b1-3)[Fuc(a1-4)]GlcNAc
# Outline: as §1
# Neu5Gc(a2-3)Gal(b1-4)Glc = target: Neu5Gc(a2-3)Gal(b1-4)Glc
# Outline: as §1
# [44] = target: Neu5Gc(a2-3)Gal(b1-4)GlcNAc
# Outline: as §1
# [45] = target: Neu5Gc(a2-3)Gal(b1-4)GlcNAc(b1-3)Gal(b1-4)GlcNAc(b1-2)Man(a1-3)[Neu5Gc(a2-3)Gal(b1-4)GlcNAc(b1-3)Gal(b1-4)GlcNAc(b1-2)Man(a1-6)]Man(b1-4)GlcNAc(b1-4)GlcNAc
# Outline: as §1
# [46] = target: Neu5Gc(a2-3)Gal(b1-4)[Fuc(a1-3)]GlcNAc
# Outline: as §1
# [47] = target: Neu5Gc(a2-6)Gal(b1-4)GlcNAc
# Outline: as §1
# Neu5Gc(a2-6)GalNAc = target: Neu5Gc(a2-6)GalNAc
# Outline: as §1
# [48] = target: Neu5Gc(a2-8)Neu5Ac(a2-3)Gal(b1-4)GlcNAc
# Outline: as §1
# [49] = target: Neu5Gc(a2-8)Neu5Gc(a2-3)Gal(b1-4)GlcNAc
# Outline: as §1
# [50] = target: Neu5Gc(a2-8)Neu5Gc(a2-3)Gal(b1-4)GlcNAc(b1-3)Gal(b1-4)GlcNAc
# Outline: as §1
# [51] = target: Neu5Gc(a2-8)Neu5Gc(a2-6)Gal(b1-4)GlcNAc
# Outline: as §1
# [52] = target: Neu5Gc(b2-6)Gal(b1-4)GlcNAc
# Outline: as §1
binder,measurement,setting,value
OrysaEULS2 (Oryza sativa) (protein) MVYCRANPNYAMTARNGAVVLAPANPKDEYQHWIKDMRWSTSIKDEEGYPAFALVNKATGQAIKHSLGQSHPVRLVPYNPEVMDESVLWTESRDVGNGFRCIRMVNNIYLNFDAFHGDKYHGGVRDGTDIVLWKWCEGDNQRWKIQPYYILEQKLISEEDLNSAVDHHHHHH,glycan array binding signal (z-score),[1],0.266
same,glycan array binding signal (z-score),[2],1
same,glycan array binding signal (z-score),[3],3.61
same,glycan array binding signal (z-score),[4],-0.238
same,glycan array binding signal (z-score),[5],-0.244
same,glycan array binding signal (z-score),[6],-0.231
same,glycan array binding signal (z-score),[7],-0.176
same,glycan array binding signal (z-score),[8],-0.207
same,glycan array binding signal (z-score),[9],0.476
same,glycan array binding signal (z-score),[10],-0.206
same,glycan array binding signal (z-score),[11],0.386
same,glycan array binding signal (z-score),[12],-0.254
same,glycan array binding signal (z-score),[13],-0.226
same,glycan array binding signal (z-score),[14],-0.197
same,glycan array binding signal (z-score),[15],-0.191
same,glycan array binding signal (z-score),[16],-0.206
same,glycan array binding signal (z-score),[17],-0.191
same,glycan array binding signal (z-score),[18],-0.196
same,glycan array binding signal (z-score),[19],-0.206
same,glycan array binding signal (z-score),[20],-0.266
same,glycan array binding signal (z-score),[21],-0.179
same,glycan array binding signal (z-score),Neu5Ac(a2-6)GalNAc,-0.217
same,glycan array binding signal (z-score),[22],-0.213
same,glycan array binding signal (z-score),[23],-0.179
same,glycan array binding signal (z-score),[24],-0.185
same,glycan array binding signal (z-score),[25],-0.216
same,glycan array binding signal (z-score),Neu5Ac(a2-8)Neu5Ac,-0.196
same,glycan array binding signal (z-score),[26],-0.153
same,glycan array binding signal (z-score),[27],-0.188
same,glycan array binding signal (z-score),[28],-0.191
same,glycan array binding signal (z-score),[29],-0.195
same,glycan array binding signal (z-score),[30],-0.195
same,glycan array binding signal (z-score),[31],-0.193
same,glycan array binding signal (z-score),[32],-0.213
same,glycan array binding signal (z-score),[33],-0.175
same,glycan array binding signal (z-score),[34],-0.252
same,glycan array binding signal (z-score),[35],-0.211
same,glycan array binding signal (z-score),[36],-0.204
same,glycan array binding signal (z-score),[37],-0.284
same,glycan array binding signal (z-score),[38],-0.194
same,glycan array binding signal (z-score),Neu5Ac(b2-6)GalNAc,-0.217
same,glycan array binding signal (z-score),[39],0.091
same,glycan array binding signal (z-score),[40],-0.199
same,glycan array binding signal (z-score),[41],-0.203
same,glycan array binding signal (z-score),[42],-0.181
same,glycan array binding signal (z-score),[43],-0.183
same,glycan array binding signal (z-score),Neu5Gc(a2-3)Gal(b1-4)Glc,-0.177
same,glycan array binding signal (z-score),[44],-0.217
same,glycan array binding signal (z-score),[45],0.504
same,glycan array binding signal (z-score),[46],-0.184
same,glycan array binding signal (z-score),[47],-0.186
same,glycan array binding signal (z-score),Neu5Gc(a2-6)GalNAc,-0.171
same,glycan array binding signal (z-score),[48],-0.256
same,glycan array binding signal (z-score),[49],-0.269
same,glycan array binding signal (z-score),[50],-0.295
same,glycan array binding signal (z-score),[51],-0.265
same,glycan array binding signal (z-score),[52],-0.203
